From PubChem BioAssay AID686979 (National Center for Advancing Translational Sciences (NCATS), 2013)
Among all 420,000 compounds or so, about 50,000 (12%) were called active. This list was built around the results that the source calls inconclusive (neither active nor inactive); the mix of calls is not that of the screen. Calls come from the whole dose curve; as a rule, active = well fitted inhibition curve with a large enough effect; inconclusive = small, poorly fitted or top-dose-only effect; inactive = flat fitted curve, though single readings scatter. No potency is given beside an inconclusive call; the fits are too rough.
% is set by controls: 0 for no effect and ±100 for the full control effect; potency is the fitted concentration of half-maximal effect; tags give direction and shape of the fitted curve.

Test: qHTS for Inhibitors of human tyrosyl-DNA phosphodiesterase 1 (TDP1): qHTS in cells in presence of CPT; note: nearly all actives have a fitted effect of over 55% in size
Conditions: chicken DT40 Tdp1-/-;hTDP1 cells + 20 nM CPT, ATP luminescence, 48 h; activity change, negative = growth inhibition: at 46.2 µM (top of the series) unless noted
Method in brief: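 Chicken DT40 Tdp1-/- cells stably complemented with human TDP1 were seeded at 400 cells/well in medium containing 20 nM camptothecin, exposed to pin-transferred compounds, and grown at 37 °C for at least 48 hr. Viability was read as ATP luminescence.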
In the case of Cc1cccc(NC(=O)c2nc(S(C)(=O)=O)ncc2Cl)c1, the Potency was active: 0.651 µM.
With COc1ccc(-c2cc3ccc(O)c(CN4CCOCC4)c3oc2=O)cc1 the Potency was inconclusive [inhibitor, single point].
In the case of O=C(NNC(=S)NC(=O)c1cccnc1)c1ccc(Cl)cc1, the Potency was active: 23.1 µM.
With COc1ccc(CCNC(=O)COc2ccc(-c3ccc(C)cc3)cc2)cc1OC the Potency was inconclusive [inhibitor, single point].
In the case of CCc1ccc(OCC(=O)Nc2ccncc2)c(Br)c1, the Potency was inconclusive [inhibitor, single point].
In the case of COc1ccc(C(CNC(=O)Nc2ccc(Cl)cc2)N2CCN(C)CC2)cc1 (stereo not given), the “activity change, negative = growth inhibition” value was inactive: -24%.
For CN(CCc1ccccc1)C(=O)c1ccc(NC(=O)Cc2ccc([N+](=O)[O-])cc2)cc1, the Potency was inconclusive [inhibitor, single point].
With COC(=O)c1c(SC)nc2ccccc2c1OCc1ccccc1C the Potency was inconclusive [inhibitor, partial curve].
With COc1ccc(C(C)=O)cc1CN(c1ccccc1OC)S(=O)(=O)c1cccs1 the Potency was inconclusive [inhibitor, single point].
For Cc1ccccc1N1CCN(S(=O)(=O)c2nnc(NC(=O)CC(C)C)s2)CC1, the Potency was inconclusive [inhibitor, single point].
In the case of COc1ccc(-c2ccc3c(N)c(C(=O)NCc4ccc(Cl)cc4)sc3n2)cc1, the Potency was inconclusive [inhibitor, single point].
In the case of CC(C)(C)c1ccc(CC(=O)N2CCC2(C)C(=O)Nc2ccc3[nH]ncc3c2)cc1 (stereo not given), the Potency was active: 14.6 µM.
In the case of COc1ccc(NC(=S)N2CCC3CC2c2cc(-c4ccc5c(c4)OCO5)ccc23)c(OC)c1 (stereo not given), the Potency was inconclusive [inhibitor, single point].
In the case of O=C(NNC1=C(C(=O)C(F)(F)F)CCC1)c1ccccc1O, the Potency was active: 16.4 µM.
For CN(Cc1cccc(F)c1)C(=O)C(c1ccccc1)c1ccccc1, the Potency was inconclusive [inhibitor, single point].
In the case of Cc1ccccc1C(=O)N1CC(=O)Nc2ccc(F)cc2C1c1ccc(F)cc1 (stereo not given), the “activity change, negative = growth inhibition” value was inactive: 0.539%.
For COc1ccc(CNC(=O)C(c2ccc(C)o2)N(C(=O)c2snc(C(N)=O)c2N)c2ccccc2OC)cc1 (stereo not given), the Potency was inconclusive [inhibitor, single point].
For COC(=O)C[C@@H]1CC[C@@H](NS(=O)(=O)c2ccc(OC)cc2)[C@@H](CO)O1, the “activity change, negative = growth inhibition” value was inactive: 0.283%.
In the case of COc1cc(C(=O)NCC(=O)N2CCN(S(=O)(=O)c3ccccc3C(F)(F)F)CC2)cc(OC)c1OC, the Potency was inconclusive [inhibitor, single point].
For Cc1cc(=O)oc2c1ccc1oc(/C(=N/O)c3ccccc3)c(C)c12, the Potency was active: 20.6 µM.
For O=[N+]([O-])c1ccc(N/N=C/c2ccccc2O)cc1, the Potency was active: 13 µM.
For CCN1C(=O)[C@@H]2[C@@H](c3ccc(-c4ccc(F)cc4)cc3)N3CCCC[C@@]3(C(=O)OC)[C@@H]2C1=O, the Potency was inconclusive [inhibitor, single point].
With CCCn1c(=O)c2sccc2n2c(CCCC(=O)NCC3CCCO3)nnc12 (stereo not given) the “activity change, negative = growth inhibition” value was inactive: -9.03%.
In the case of COC(=O)[C@H](Cc1ccccc1)NC(=O)c1ccc2ccccc2n1, the “activity change, negative = growth inhibition” value was inactive: 9.53%.
For O=C(NCCc1ccccc1F)C1CCC(=O)N(Cc2ccc(Cl)cc2)C1 (stereo not given), the “activity change, negative = growth inhibition” value was inactive: -0.188%.
In the case of CNc1snc(C)c1C(=O)OCC(=O)Nc1ccc(C)cc1F, the Potency was inconclusive [inhibitor, single point].
For Cc1cccnc1Nc1nc(-c2ccc(O)cc2O)cs1, the Potency was inconclusive [inhibitor, single point].
In the case of Cn1ncc(N)c1C(=O)Nc1cccc(C(F)(F)F)c1, the “activity change, negative = growth inhibition” value was inactive: -27.4%.
With COc1ccc(C(=O)N(C)C2CCCc3ccccc32)cc1OC1CCN(C(C)C)CC1 (stereo not given) the Potency was active: 20.6 µM.
With Cc1nc(-c2ccccc2)sc1-c1ccnn1C the Potency was inconclusive [inhibitor, single point].
For C1=NN(c2ccccc2)C=NN1c1ccccc1, the “activity change, negative = growth inhibition” value was inactive: -25.2%.
With CCN(C(=O)CSc1nnc(C)n1-c1ccccc1)C1CCS(=O)(=O)C1 (stereo not given) the “activity change, negative = growth inhibition” value was inactive: -6.16%.
For COc1ccc2[nH]cc(CC(N)C(=O)O)c2c1 (stereo not given), the Potency was inconclusive [inhibitor, single point].
For CCOc1ccc2nc(NC(=O)c3ccc(C)o3)sc2c1, the Potency was inconclusive [inhibitor, single point].
For CCOC(=O)C1CCN(C(=O)C2CCN(C3=NS(=O)(=O)C(c4ccc(C)cc4)=C3CC)CC2)CC1, the Potency was inconclusive [inhibitor, single point].
In the case of COc1ccccc1CNC(=O)c1cc(-c2ccccc2)nn1CC1CC(c2cccc([N+](=O)[O-])c2)=NO1 (stereo not given), the Potency was active: 10.3 µM.
In the case of CCOC(=O)c1noc2ncnc(Nc3ccc(F)cc3F)c12, the “activity change, negative = growth inhibition” value was inactive: -14%.
For C/C=C(\C)CN1CCC(Oc2cccc(C(=O)NCc3ccccn3)c2)CC1, the “activity change, negative = growth inhibition” value was inactive: -1.45%.
In the case of COCCNC(=S)N1CCC2CC1c1cc(-c3ccc4c(c3)OCO4)ccc12 (stereo not given), the Potency was active: 16.4 µM.
For CCN1C(=O)N[C@@H](c2ccccc2)[C@H](C(=O)OC)[C@H]1C, the “activity change, negative = growth inhibition” value was inactive: 4.19%.
For CC(C)C(NC(=O)OCc1ccccc1)C(=O)OCC(=O)NCc1ccco1 (stereo not given), the Potency was inconclusive [inhibitor, single point].
In the case of Cc1ccc(S(=O)(=O)N(CC(=O)N2CCCC2)C2CCCCC2)cc1, the “activity change, negative = growth inhibition” value was inactive: -29%.
With CC(=O)c1ccc(S(=O)(=O)Nc2cccc(-c3ccc(N4CCCCC4)nn3)c2)cc1 the Potency was inconclusive [inhibitor, single point].
In the case of Cn1cc(S(=O)(=O)N2CCCCCC2)cc1C(=O)N1CCN(c2cccc(Cl)c2)CC1, the Potency was active: 14.6 µM.
In the case of COCCN(C(=O)c1ccccc1OC1CCN(S(C)(=O)=O)CC1)C(C)C, the “activity change, negative = growth inhibition” value was inactive: -2.47%.
With C=CCN1C(=O)/C(=C\c2ccc(Cl)cc2)N=C1SCC(=O)NCCC the “activity change, negative = growth inhibition” value was inactive: -3.47%.
With CCNC(=O)NC(C(=O)OC)C12CC3CC(CC(C3)C1)C2 (stereo not given) the Potency was inconclusive [inhibitor, partial curve, poor fit].
For COc1cccc(C(=O)NN2CCOCC2)c1, the “activity change, negative = growth inhibition” value was inactive: -2.98%.
In the case of CCN1CCCC1CNC(=O)C1c2ccccc2C(=O)N(CCOC)C1c1ccc(F)cc1 (stereo not given), the “activity change, negative = growth inhibition” value was inactive: -24.1%.
For CCOc1ccc(/C=N/NC(=O)c2ccc(CSc3nc4ccccc4[nH]3)cc2)cc1, the Potency was active: 23.1 µM.
For CC1CN(C(=O)CSc2cn(CC(=O)N3CCOCC3)c3ccccc23)CC(C)O1 (stereo not given), the “activity change, negative = growth inhibition” value was inactive: -3.87%.
For Cc1cc2c(cc1C)/C(=N/NC(=O)c1ccccn1)CCC2, the Potency was inconclusive [inhibitor, single point].
With CCc1ccc(OC2=NS(=O)(=O)c3ccccc32)cc1 the “activity change, negative = growth inhibition” value was inactive: -1.76%.
With C=CCNC(=O)c1ccsc1N the Potency was inconclusive [inhibitor, single point].
In the case of CCOc1ccc(OCCC(=O)OCC(=O)NCc2ccc(Cl)cc2)cc1, the “activity change, negative = growth inhibition” value was inactive: 9.69%.
In the case of COc1ccc(-c2cc3nc4n(c(=O)c3s2)CCC4)cc1, the Potency was active: 14.6 µM.
In the case of FC(F)Oc1ccc(NC(=S)Nn2cnnc2)cc1, the Potency was inconclusive [inhibitor, single point].
In the case of COc1ccccc1NC(=O)c1ccc(SCC(=O)NCc2ccccc2Cl)c([N+](=O)[O-])c1, the Potency was inconclusive [inhibitor, single point].
For NS(=O)(=O)c1ccc(CNC(=O)c2cccnc2Cl)cc1, the “activity change, negative = growth inhibition” value was inactive: -2.09%.
For CC(=O)c1c(C)[nH]c(C(=O)CN2CCN(S(=O)(=O)c3ccccc3)CC2)c1C, the Potency was inconclusive [inhibitor, partial curve].
In the case of CC(=O)Nc1sc(C)c(C)c1C(=O)OC(C)C, the Potency was inconclusive [inhibitor, single point].
With Cc1ccccc1N(CC(=O)Nc1ccccc1C(=O)NCc1ccco1)S(=O)(=O)c1ccccc1 the Potency was inconclusive [inhibitor, single point].
In the case of O=C(NC(=S)NC1CCCCC1)c1ccc(Cl)cc1, the Potency was inconclusive [inhibitor, single point].
For Cc1ccc(OS(=O)Nc2cccc3nccnc23)cc1 (stereo not given), the Potency was inconclusive [inhibitor, single point].
With O=C(NCc1ccc(F)cc1)c1cc(C2CCCCN2C(=O)c2ccc3c(c2)CCO3)on1 (stereo not given) the Potency was active: 18.4 µM.
For COc1cccc(CN(C)C(=O)c2ccccc2Sc2ccccc2C#N)c1OC, the Potency was inconclusive [inhibitor, single point].
With Cc1[nH]n(-c2ccccc2)c(=O)c1N=Nc1cccc(S(=O)(=O)N2CCOCC2)c1 the Potency was inconclusive [inhibitor, partial curve].
With Cc1ccc(NC(=S)N(CCCN2CCN(C)CC2)Cc2cccs2)cc1 the “activity change, negative = growth inhibition” value was inactive: -0.665%.
For Cn1c(CCNC(=O)c2ccco2)nc2ccccc21, the “activity change, negative = growth inhibition” value was inactive: -0.615%.
In the case of Cc1c(OCc2ccc([N+](=O)[O-])cc2)ccc2c3c(c(=O)oc12)CCC3, the “activity change, negative = growth inhibition” value was inactive: -13.5%.
In the case of COc1cc(C)nc(N2CCCC(C(=O)Nc3cc(Cl)ccc3OC)C2)n1 (stereo not given), the Potency was inconclusive [inhibitor, single point].
With Cc1ccc(C(c2nnnn2C2CCCC2)N2CCN(c3nc4ccccc4s3)CC2)cc1 (stereo not given) the Potency was inconclusive [inhibitor, single point].
In the case of CC(Sc1nnc(CC(=O)Nc2ccccc2F)n1C)C(=O)Nc1nccs1 (stereo not given), the “activity change, negative = growth inhibition” value was inactive: -2.27%.
In the case of CN(Cc1ccccc1)C(=O)Cn1nnc(-c2ccccc2)c1COc1ccc2ccccc2c1, the Potency was active: 23.1 µM.
For NNC(=O)CN1C(c2ccccc2)=Nc2ccc(Br)cc2C1c1ccccc1 (stereo not given), the Potency was inconclusive [inhibitor, single point].
